From PubChem BioAssay AID624296 (National Center for Advancing Translational Sciences (NCATS), 2012)
Out of some 350,000 compounds screened, about 9,900 (2.8%) were called active. Inconclusive results, whose numbers are uncertain, are shown with a selection of clear calls. The call rests on the fitted dose curve; in most records, active means well fitted activation curve with a large enough effect; inconclusive means small, poorly fitted or top-dose-only effect; inactive means no such curve, though single readings can be large or run the other way. No potency is given beside an inconclusive call; the fits are too rough.

Experiment: A quantitative high throughput screen for small molecules that induce DNA re-replication in MCF 10a normal breast cells. Further: nearly all actives have a fitted effect of over 50% in size. On activity, positive = re-replication: % of control where 0% means no effect.
Conditions: MCF 10A DNA re-replication, Hoechst nuclear intensity, 48 h; activity, positive = re-replication: at 46.1 µM (top of the series)
Potency means the concentration at half of the fitted maximal effect; tags describe the fitted curve by direction and shape.

| SMILES | Potency | activity, positive = re-replication |
| --- | --- | --- |
| COc1ccc(/C=N/NC(=O)c2nc(-c3ccccc3)n(-c3ccccc3)n2)c(O)c1 | active: 7.31 µM | – |
| CCCCOC(=O)C(C#N)c1nc2ccccc2nc1N1CCOCC1 (stereo unspecified) | inconclusive [activator, single point] | – |
| COc1ccc(C(=O)NNc2ccccc2)cc1OC | inconclusive [activator, single point] | – |
| Cc1nonc1NC(=O)CSc1nc2c(C)cccc2cc1C#N | inconclusive [activator, single point] | – |
| Clc1ccc2[nH]c3c(NCCN4CCOCC4)ncnc3c2c1 | inconclusive [activator, single point] | – |
| CCn1c(=NC(=O)CCS(=O)(=O)c2ccccc2)sc2cccc(OC)c21 | – | inactive: 10.7% |
| NC(N)=Nc1nc2ccc(Cl)cc2c(=O)[nH]1 | – | inactive: 3.6% |
| Cc1ccc(/C(O)=C/c2nc3ccccc3oc2=O)cc1 | inconclusive [activator, full curve, poor fit] | – |
| Cc1ccc(C)c(OCC(=O)NC2CCCCCC2)c1 | inconclusive [activator, partial curve, poor fit] | – |
| COc1ccc(-c2noc(CNC(=O)c3ccc4c(c3)OCO4)n2)cc1 | – | inactive: 9.83% |
| Cc1ccc(C(=O)NCCSCc2ccccc2)cc1[N+](=O)[O-] | inconclusive [activator, single point] | – |
| C#CCN(C(=O)c1ccc(OC2CCN(C(=O)CCOC)CC2)cc1)C1CCCCC1 | – | inactive: 8.07% |
| CC(C)(C)N(Cc1nc(-c2ccccc2)no1)C(=O)c1ccc2c(c1)OCO2 | inconclusive [activator, single point] | – |
| O=C(Nc1ccc(Cc2ccncc2)cc1)c1ccc(S(=O)(=O)N2CCCC2)cc1 | inconclusive [activator, single point] | – |
| CC(=O)Nc1ccc2c(c1)CCCC2 | – | inactive: 1.85% |
| CCOC(=O)c1sc(NC(=O)CN2C(=O)c3cccc4cccc(c34)C2=O)nc1C | inconclusive [activator, full curve, poor fit] | – |
| CCC(C(=O)NC1CCCC1)N(C(=O)Cn1nnc(-c2ccc(C)o2)n1)C(C)(C)C (stereo unspecified) | – | inactive: -1.21% |
| O=C(NC1CCCC1)C(c1ccncc1)N(Cc1ccccc1)C(=O)c1ccc(-c2ccccc2)[nH]1 (stereo unspecified) | inconclusive [activator, single point] | – |
| CN(C(=O)CC1C(=O)NCCN1Cc1ccc(F)c(F)c1)C1CCCCC1 (stereo unspecified) | – | inactive: 12.2% |
| COc1cc(/C=C(/C#N)C(=O)Nc2ccc(Cl)cc2)ccc1Oc1nc(Cl)ncc1F | inconclusive [activator, single point] | – |
| CCCC(C)C(=O)Nc1nc(C)c(-c2csc(Nc3cc(OC)ccc3OC)n2)s1 (stereo unspecified) | inconclusive [activator, full curve, poor fit] | – |
| Cc1nc(CNC(=O)CC2C(=O)NCCN2Cc2ccoc2)nc2c1CCCC2 (stereo unspecified) | – | inactive: -1.11% |
| O=C(COC(=O)c1ccccc1Nc1cccc(C(F)(F)F)c1)NCc1ccco1 | inconclusive [activator, partial curve] | – |
| COc1ccccc1OC(C)C(=O)N1CCC(Cc2ccccc2)CC1 (stereo unspecified) | – | inactive: 4.67% |

| SMILES | Potency | activity, positive = re-replication |
| --- | --- | --- |
| CCOC(=O)c1ccccc1NC(=O)Nc1ccc(OC)c(OC)c1 | – | inactive: 0.404% |
| O=C(CN1CCN(Cc2ccccc2)CC1)N/N=C/c1cccs1 | inconclusive [activator, partial curve, poor fit] | – |
| CCCc1nnc(NC(=O)CCC(=O)Nc2ccc(F)cc2)s1 | inconclusive [activator, single point] | – |
| CCc1cccc(CC)c1NC(=O)COC(=O)c1ccccc1-c1nc2ccccc2s1 | inconclusive [activator, partial curve, poor fit] | – |
| COc1ccccc1CC(=O)N1CCN(c2cccc(Cl)c2)CC1 | – | inactive: -10.7% |
| CN(CC(=O)Nc1cccc(F)c1)C(=O)c1ccc2c(c1)CC(c1ccccc1)OC2=O (stereo unspecified) | active: 18.4 µM | – |
| OCCNc1c2ccccc2nc2c(F)c(F)c(F)c(F)c12 | inconclusive [activator, full curve] | – |
| CCSc1ccc([C@@H]2[C@H]3C(=O)N(CC)C(=O)[C@H]3[C@]3(C(=O)OC)CCCCN23)cc1OC | inconclusive [activator, single point] | – |
| CC(C)C[C@H](NC(=O)c1nc[nH]c1C(=O)NC1CCN(C(=O)OC(C)(C)C)CC1)C(=O)OC(C)(C)C | active: 13 µM | – |
| Cc1ccc(-c2csc(NC(=O)Cn3[nH]c(=O)c4ccccc4c3=O)n2)cc1 | active: 3.26 µM | – |
| CCCCCCCCn1c(=O)c(C(=O)OCC)c(O)c2ccccc21 | inconclusive [activator, single point] | – |
| CC(=O)Nc1ccc(C(=O)Nc2cccc(S(=O)(=O)N(C)c3ccccc3)c2)cc1 | – | inactive: 4.9% |
| COC(=O)c1c(NC(=O)COC(=O)c2ccc(O)cc2)sc2c1CCCCC2 | active: 13 µM | – |
| CCN(C(=O)COC(=O)c1ccc(SC)cc1OC)C1CCS(=O)(=O)C1 (stereo unspecified) | – | inactive: 8.45% |
| CC(Oc1ccc2ccccc2c1)C(=O)NNC(=O)Nc1ccccc1F (stereo unspecified) | – | inactive: 3.06% |
| Cc1onc(-c2c(F)cccc2Cl)c1C(=O)Nc1nnc(C(F)(F)F)s1 | – | inactive: 5.68% |
| O=C(NCc1ccco1)C1CCN(C(=O)c2cc3sccc3n2Cc2ccc(F)cc2)CC1 | – | inactive: 25.1% |
| O=C(NC1CCC(Oc2ccc(C(=O)O)cc2)CC1)NC12CC3CC(CC(C3)C1)C2 (stereo unspecified) | inconclusive [activator, partial curve, poor fit] | – |
| COc1cc2ccccc2cc1C(=O)N(CCN(C)C)c1nc2c(F)cc(F)cc2s1 | inconclusive [activator, partial curve, poor fit] | – |
| CC(=O)C1=C(C)NC(SCC(=O)c2ccc(F)cc2)=C(C#N)C1CC(C)C (stereo unspecified) | active: 18.4 µM | – |
| Cc1nn(-c2ccccc2)c(C)c1/C=N/NC(=O)c1cccs1 | – | inactive: 15.7% |
| O=C(CSc1nnc(NC(=O)c2ccc(F)cc2F)s1)NC1CC1 | – | inactive: 0.177% |
| CCN(C(=O)C1CCCN(c2ncnc3c2nc2n3CCCCC2)C1)c1cccc(Cl)c1 (stereo unspecified) | inconclusive [activator, partial curve, poor fit] | – |
| N#C/C(=C(/O)c1cccs1)c1nc2ccccc2[nH]1 | active: 18.4 µM | – |

| SMILES | Potency | activity, positive = re-replication |
| --- | --- | --- |
| Cn1c(-c2ccc(C=O)s2)nc2c3ccccc3c3ccccc3c21 | active: 10.3 µM | – |
| CN(Cc1ccccc1)c1ncnc2c1cnn2-c1ccccc1 | inconclusive [activator, single point] | – |
| CC(=O)Nc1cccc(OCC(=O)Nc2ccccc2)c1 | – | inactive: -1.11% |
| CCOc1ccccc1N1CCN(C(=O)CCCN2C(=O)c3cccc4cccc(c34)C2=O)CC1 | inconclusive [activator, single point] | – |
| COCCN1C=C(C(=O)OC)C(c2ccccc2Cl)C(C(=O)OC)=C1 | active: 13 µM | – |
| C/C=C/c1ccc(OCC(O)CN2CCCCCCC2)c(OC)c1 (stereo unspecified) | inconclusive [activator, partial curve, poor fit] | – |
| Cc1ccc(C2C(C(=O)c3cc4ccccc4o3)=C(O)C(=O)N2CCN2CCOCC2)cc1 (stereo unspecified) | active: 20.6 µM | – |
| O=c1c2c(nc3cc(-c4cccc(Cl)c4)[nH]n13)CCC2 | inconclusive [activator, single point] | – |
| O=C(Nc1ccccc1)c1ccccc1N=Cc1cccc(O)c1 | inconclusive [activator, single point] | – |
| O=C(Nc1cccc(F)c1)c1cc(S(=O)(=O)N2CCOCC2)cs1 | inconclusive [activator, single point] | – |
| COc1ccccc1-c1nnc2sc(-c3cc4ccccc4o3)nn12 | active: 2.91 µM | – |
| O=C(CCN1C(=O)/C(=C/c2ccc(F)cc2)SC1=S)NCCCn1ccnc1 | inconclusive [activator, full curve, poor fit] | – |
| CCOc1ccc(CCNC(=O)CCn2ccc3cc(S(=O)(=O)N4CCCC4)ccc32)cc1 | – | inactive: 20.7% |
| CS(=O)(=O)c1ccc(C(=O)Nc2nc(-c3ccco3)c(-c3ccco3)s2)cc1 | inconclusive [activator, single point] | – |
| N#CCc1ccc(NS(=O)(=O)c2ccc(C3CCCCC3)cc2)cc1 | inconclusive [activator, single point] | – |
| CN(C(=O)c1cccc(NC(=O)Cc2cccc(NC(=O)C3CCCN(C(=O)c4ccccc4)C3)c2)c1)C1CCC1 (stereo unspecified) | inconclusive [activator, single point] | – |
| CC(C)c1ccc(-n2c(-c3ccccc3)c[n+]3c2CCc2ccccc2-3)cc1 | inconclusive [activator, single point] | – |
| CCOC(=O)c1sc(-c2ccc(Cl)cc2Cl)nc1O | inconclusive [activator, full curve, poor fit] | – |
| COc1ccccc1NC(=O)COc1ccc2ccccc2c1 | inconclusive [activator, partial curve, poor fit] | – |
| CSCCC(NS(=O)(=O)c1ccc(Cl)cc1)C(=O)OCC(=O)c1ccc(F)cc1 (stereo unspecified) | – | inactive: -3.62% |
| COc1cc(-c2nc(-c3ccc(NC(=O)c4ccc(Br)o4)cc3)no2)cc(OC)c1OC | active: 5.17 µM | – |
| Cc1ccc(-c2ccc(C(=O)Nc3cccc(F)c3)o2)c2ccccc12 | inconclusive [activator, partial curve, poor fit] | – |
| Cc1ccc(C)c2[nH]c(=O)c(CN(CC3CCCO3)C(=S)NCc3ccco3)cc12 (stereo unspecified) | inconclusive [activator, partial curve] | – |
